Laboratory results taken from PubChem BioAssay (NCI).
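Step 1: Grow cells in 96-well plates. Step 2: Expose to compound for 48 hours at 5 concentrations. Step 3: Interpolate endpoints linearly; if unreached, use highest concentration. GI50 marks 50% less growth. TGI: total growth inhibition.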

System: NCI-H322M lung
Experiment: NCI anticancer screen, dose series, 48 h

SMILES: CN(C)c1nc(NCCNS(=O)(=O)c2ccc(C(=O)/C=C/c3ccc(C(F)(F)F)cc3)cc2)nc(Nc2ccc(F)cc2)n1
- GI50: 11.6 µM
- TGI: 24.3 µM
